# Experimental data reported in PubChem BioAssay AID485344 (National Center for Advancing Translational Sciences (NCATS), 2010).
# Out of some 340,000 compounds screened, about 6,900 (2%) were called active. Cut-off read from the data, not from the text of the source: active = inhibition above about 30%; inactive = below that, where a call was filed. This is a selection; strong and weak results do not stand in their true shares. Entries without a call were filed so in the source.
# Target: D(2) dopamine receptor (Homo sapiens) (UniProt P14416)
# Sequence of UniProt P14416 (P14416 whole entry, looked up): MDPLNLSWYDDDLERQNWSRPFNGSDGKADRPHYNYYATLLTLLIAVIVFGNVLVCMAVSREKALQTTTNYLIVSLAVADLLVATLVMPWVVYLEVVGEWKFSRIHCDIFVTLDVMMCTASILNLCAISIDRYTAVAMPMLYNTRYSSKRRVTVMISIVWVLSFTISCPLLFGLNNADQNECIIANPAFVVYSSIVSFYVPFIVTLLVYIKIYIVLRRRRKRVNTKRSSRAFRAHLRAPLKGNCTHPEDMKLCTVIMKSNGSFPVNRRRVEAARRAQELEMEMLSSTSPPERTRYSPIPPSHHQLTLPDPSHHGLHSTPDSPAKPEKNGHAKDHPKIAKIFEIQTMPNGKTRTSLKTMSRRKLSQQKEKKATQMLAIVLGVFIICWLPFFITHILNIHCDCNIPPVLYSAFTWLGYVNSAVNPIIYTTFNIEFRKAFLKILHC
# Experiment: HTS Assay for Allosteric Antagonists of the Human D2 Dopamine Receptor: Primary Screen for Antagonists; note: 0% is about no effect
# Details: HEK293 TREx D2 cells, calcium flux, dopamine EC80; at 10 µM; stronger effect = higher value
# How it was run: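 Calcium flux kinetic readout in an inducible HEK293 TREx D2 line plated overnight at 30 C. After 180 s compound exposure, an EC80 dopamine challenge follows with another 180 s kinetic read to detect antagonism.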
row,Compound,inhibition
1,CCOc1ccc(C(=O)Nc2ccc3nc(N(CC)CC)cc(C)c3c2)cc1,10.7%
2,Cc1ccc(/C=C/C(=O)Nc2ccc3nc(N4CCC(C)CC4)cc(C)c3c2)cc1,-0.442%
3,Cn1c(=O)oc2cc(S(=O)(=O)NC(Cc3ccccc3)C(=O)Nc3ccc(F)c(Cl)c3)ccc21 (configuration not stated),4.05%
4,COc1cccc(NS(=O)(=O)c2ccc3[nH]cc(C(=O)NC(C)c4ccccc4)c(=O)c3c2)c1 (configuration not stated),9.3%
5,CCOC(=O)C1CCN(Cc2cn3c(-c4ccc(OC)cc4)nnc3s2)CC1,5.42%
6,Cc1cccc(NC(=O)c2cn(-c3ccccc3)nc2-c2ccccc2)c1C,11.1%
7,Cc1ccccc1CN1CCCN(CC(=O)Nc2ccc(F)cc2)S1(=O)=O,2.04%
8,CCOC(=O)c1c(C)oc2nc(C)nc(NCCc3ccc(Cl)cc3)c12,3.38%
9,c1cc2c(cc1C1=Nn3c(nnc3C3CCCCC3)SC1)OCO2,active: 33.3%
10,Cc1ccc(OCCCCn2c(-c3ccc(Cl)cc3)nc3ccccc3c2=O)cc1,10.9%
11,CCCCSc1[nH]c(=O)c(C(=O)OCC)cc1C#N,active: 30.2%
12,CC(C)c1ccc(NC(=O)Cn2nnc(C(=O)NCc3ccc4c(c3)OCO4)c2N)cc1,-4.27%
13,Cc1ccc(C(=O)Nc2c(C(=O)Nc3ccc(C)c(C)c3)sc3nc(C)cc(C)c23)cc1,10.6%
14,Cc1ccc(-c2noc(-c3ccc(N4CCCC4)c([N+](=O)[O-])c3)n2)cc1,6.87%
15,CCCc1cc(=O)[nH]c(SCc2nc(-c3ccc(OCC)cc3)no2)n1,-4.45%
16,Cc1c(-c2ccccc2)c(=O)oc2c(CN3CCOCC3)c(O)ccc12,1.32%
17,Cc1ccc(C2C=C(c3ccccc3)Nc3nc(NS(C)(=O)=O)nn32)cc1 (configuration not stated),-12.2%
18,CCc1cccc(C)c1NC(=O)CSc1nc2ccncc2[nH]1,0.074%
19,O=C1Nc2cc(C(=O)N3CCOCC3)ccc2S/C1=C\c1ccccc1,active: 47.4%
20,COc1ccc(NC(=O)C2CCN(c3cc(C)nc4c(-c5ccc(Cl)cc5)c(C)nn34)CC2)cc1,-18.2%
21,CCOc1ccc(C2C(C(=O)Nc3ccc(OC)cc3)=C(C)Nc3nc(CCCO)nn32)cc1 (configuration not stated),8.8%
22,O=C(NCc1ccccc1CN1CCCC1)c1cccc(S(=O)(=O)N2CCOCC2)c1,active: 49.4%
23,Cc1nn(S(=O)(=O)c2ccc(F)cc2)c(C)c1S(=O)(=O)N1CCCCCC1,-12.3%
24,COc1cc(-c2cc(OC)c3c(C)oc(C)c3c(=O)c2)ccc1OC(=O)c1cccc(C)c1,4.44%

row,Compound,inhibition
1,Cc1ccc(CNC(=O)c2ccc3c(c2)c(C)c(C)n3Cc2ccc(Cl)cc2)o1,7.41%
2,CCOC(=O)c1ccc(N2C(=O)c3n[nH]c(-c4ccco4)c3C2c2ccccc2OC)cc1 (configuration not stated),-7.47%
3,COc1ccc(N(C)S(=O)(=O)c2ccc3c(c2)CCN3C(=O)CCC(=O)O)cc1,-19.6%
4,Cc1ccc(NC(=O)Cn2c(=O)n(Cc3ccccc3)c(=O)c3c(C)c(C(=O)N(C)C)sc32)c(C)c1,7.5%
5,COc1ccc(NC(=O)c2ccco2)cc1NC(=O)c1ccccc1[N+](=O)[O-],4.47%
6,CCN1/C(=C/C=C/c2oc3ccc(-c4ccccc4)cc3[n+]2CC)Oc2ccc(-c3ccccc3)cc21,active: 75.8%
7,CCN1CCc2c(sc(-n3cccc3)c2C(C)NC(=O)Nc2ccc(C(=O)OC)cc2)C1 (configuration not stated),3.55%
8,COc1ccc(C)c2sc(N(Cc3cccnc3)C(=O)c3cccs3)nc12,-16.5%
9,Cc1ccc(NC(=O)Cn2cc3c(n2)CCCC3)cc1Cl,8.23%
10,COC(=O)c1c(C)oc2ccc(N(C(=O)c3ccncc3)S(=O)(=O)c3ccc(Br)cc3)cc12,-8.07%
11,COc1ccc(CNC(=O)c2nn(C)c3c2CSc2ccccc2-3)cc1,15.2%
12,O=C(Nc1cccc(F)c1)c1cnc2sc(N3CCCC3)nn2c1=O,-6.05%
13,COc1cc(C2C=C(C(=O)O)Nc3ncnn32)ccc1O (configuration not stated),-4.39%
14,CCOc1ccc2c(c1)c(=O)c(C(=O)c1ccc(CC)cc1)cn2CC(=O)Nc1ccc2c(c1)OCCO2,20.8%
15,COc1cccc(NC(=O)Cn2c(=O)n(CCC(=O)NCc3ccccc3OC)c(=O)c3ccccc32)c1,0.925%
16,CCN(CC)CCOC(=O)c1ccc(NC(=O)CCCN2C(=O)/C(=C/c3cccs3)SC2=S)cc1,active: 48.9%
17,COc1ccc(Cl)cc1NC(=O)Cn1c(=O)n2nc(-c3ccccc3)nc2c2ccccc21,2.67%
18,O=C(NCCc1cccs1)c1ccc(Cn2c(SCc3cccc(F)c3)nc3cccnc32)cc1,-6.26%
19,CCNc1nc2c(c(=O)n(C)c(=O)n2C)n1Cc1ccc(F)cc1,4.18%
20,O=C(Cn1cc(C(=O)c2ccco2)c2ccccc21)Nc1ccccc1C(F)(F)F,9.21%
21,Cc1ccc(CSC2=NC(C)(C)Nc3ccccc32)c(C)c1,8.82%
22,COc1ccc(-c2csc3ncnc(Nc4ccccc4)c23)cc1,6.96%
23,Cc1ccccc1S(=O)Cc1ccc(C(=O)NCc2ccccc2Cl)o1 (configuration not stated),-14.8%
